Experimental data reported in PubChem BioAssay (Tox21).
Several values for one entry are separate records, joined by “and”; a condition that tells them apart may be missing. Equal values may be shown once. The shares of active, inactive and inconclusive entries below differ from those in the screen. For some of these results: Where the call is inconclusive, the potency comes from a doubtful curve fit. Activity calls are given as the source filed them. Calls come from the whole dose curve; as a rule, active = well fitted curve in the direction sought with a large enough effect in the repeat runs; inconclusive = weak or mixed curves; inactive = no such curve, though single readings can be large; an effect the other way counts as inactive or inconclusive.

Legend:
[1] = Caspase-3/7 induction in CHO-K1 cells by small molecules, qHTS cell viability counter screen (AID 1346979); note: nearly all actives have a fitted effect of over 35% in size
Outline: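 Seeding: 1,500 CHO-K1 cells/well. Rest: 5hr, 37C. Treatment: compounds in DMSO, 16hr. Read: CellTiter-Fluor, 1hr, fluorescence.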

[2] = target: Cytochrome P450 1A2 (Homo sapiens) (UniProt P05177); test: Cytochrome P450 Family 1 Subfamily A Member 2 (CYP1A2) small molecule antagonists: luciferase reporter qHTS assay (AID 1671199); note: nearly all actives have a fitted effect of over 50% in size
Chain of UniProt P05177 (P05177 whole entry, looked up): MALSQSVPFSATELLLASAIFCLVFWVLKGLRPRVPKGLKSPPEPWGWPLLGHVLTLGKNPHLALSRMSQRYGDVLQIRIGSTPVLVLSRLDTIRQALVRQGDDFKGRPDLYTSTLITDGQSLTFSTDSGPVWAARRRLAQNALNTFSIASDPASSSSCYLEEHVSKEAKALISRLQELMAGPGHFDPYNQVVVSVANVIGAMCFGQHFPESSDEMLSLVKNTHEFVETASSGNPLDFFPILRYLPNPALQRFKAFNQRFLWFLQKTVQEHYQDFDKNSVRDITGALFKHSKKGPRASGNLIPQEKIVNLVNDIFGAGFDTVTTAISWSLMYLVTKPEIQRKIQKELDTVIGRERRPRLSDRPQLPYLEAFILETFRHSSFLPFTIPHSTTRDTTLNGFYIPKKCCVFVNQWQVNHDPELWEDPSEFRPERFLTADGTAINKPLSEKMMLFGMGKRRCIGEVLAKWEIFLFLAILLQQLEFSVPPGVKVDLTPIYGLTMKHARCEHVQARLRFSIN
Outline: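 CYP1A2 turnover of a luminogenic substrate was quantified after 1 h with NADPH regeneration at room temperature. Furafylline served as positive control.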

[3] = target: Cytochrome P450 2C9 (Homo sapiens) (UniProt P11712); test: Cytochrome P450 Family 2 Subfamily C Member 9 (CYP2C9) small molecule antagonists: luciferase reporter qHTS assay (AID 1671198); note: nearly all actives have a fitted effect of over 50% in size
Chain of UniProt P11712 (P11712 whole entry, looked up): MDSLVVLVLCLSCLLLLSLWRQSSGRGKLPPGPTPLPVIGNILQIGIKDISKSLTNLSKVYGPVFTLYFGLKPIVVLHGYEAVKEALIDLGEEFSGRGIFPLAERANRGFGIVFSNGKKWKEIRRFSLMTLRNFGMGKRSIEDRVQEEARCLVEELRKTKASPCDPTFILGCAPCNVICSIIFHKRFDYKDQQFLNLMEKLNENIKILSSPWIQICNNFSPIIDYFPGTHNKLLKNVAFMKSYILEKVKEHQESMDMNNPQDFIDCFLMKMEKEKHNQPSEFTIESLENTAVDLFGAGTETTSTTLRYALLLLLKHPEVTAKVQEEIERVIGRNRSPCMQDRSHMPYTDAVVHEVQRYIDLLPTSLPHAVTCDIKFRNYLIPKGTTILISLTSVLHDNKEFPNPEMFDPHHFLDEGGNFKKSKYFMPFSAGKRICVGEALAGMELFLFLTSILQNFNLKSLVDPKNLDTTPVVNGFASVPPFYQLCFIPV
Outline: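 CYP2C9 activity was measured with a P450-Glo proluciferin substrate. Enzyme–substrate mix was held with compound for 10 min at room temperature, then NADPH regeneration solution was added for 1 h at 37C. Luciferin product was read as luminescence.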

[4] = target: Cytochrome P450 3A4 (Homo sapiens) (UniProt P08684); test: Cytochrome P450 Family 3 Subfamily A Member 4 (CYP3A4) small molecule antagonists: luciferase reporter qHTS assay (AID 1671201); note: nearly all actives have a fitted effect of over 50% in size
Chain of UniProt P08684 (P08684 whole entry, looked up): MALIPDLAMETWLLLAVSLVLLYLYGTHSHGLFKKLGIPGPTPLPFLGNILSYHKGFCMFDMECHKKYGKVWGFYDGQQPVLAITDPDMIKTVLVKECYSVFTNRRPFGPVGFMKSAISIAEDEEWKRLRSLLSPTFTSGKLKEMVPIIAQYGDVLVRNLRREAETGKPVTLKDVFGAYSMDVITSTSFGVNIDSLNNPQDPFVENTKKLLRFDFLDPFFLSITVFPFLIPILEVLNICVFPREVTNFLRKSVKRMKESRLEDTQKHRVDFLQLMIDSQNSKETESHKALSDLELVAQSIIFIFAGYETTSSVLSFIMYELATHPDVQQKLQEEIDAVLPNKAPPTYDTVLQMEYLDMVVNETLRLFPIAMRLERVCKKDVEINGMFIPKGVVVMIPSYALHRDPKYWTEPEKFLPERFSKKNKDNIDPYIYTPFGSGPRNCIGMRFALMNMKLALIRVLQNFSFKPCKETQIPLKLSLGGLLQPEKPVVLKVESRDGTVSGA
Outline: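 Enzyme and proluciferin substrate are mixed with test chemicals for 10 min, then NADPH regeneration system drives turnover for 1 h at room temperature. A detection reagent halts the reaction; luminescence after 20 min gives relative activity.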

[5] = Caspase-3/7 induction in CHO-K1 cells by small molecules, qHTS assay (AID 1346980); note: nearly all actives have a fitted effect of over 15% in size
Outline: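 Wild-type cells were seeded at 1,500 per well and settled 5 hr at 37 C, 5% CO2, then exposed to DMSO-dissolved compounds for 17 hr. Caspase-Glo 3/7 reagent was added, and luminescence was read after 30min at room temperature.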

[6] = Caspase-3/7 induction in HepG2 cells by small molecules, qHTS cell viability counter screen (AID 1346981); note: nearly all actives have a fitted effect of over 30% in size
Outline: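 Multiplexed with the caspase-3/7 assay: HepG2 cells, 16 hr compound treatment, CellTiter-Fluor viability detection by fluorescence.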

[7] = target: Voltage-gated inwardly rectifying potassium channel KCNH2 (Homo sapiens) (UniProt Q12809); test: Human Ether-a-go-go-Related Gene (hERG) channel small molecule antagonists: fluorescence cell-based qHTS assay (AID 1671200); note: nearly all actives have a fitted effect of over 50% in size
Chain of UniProt Q12809 (Q12809 whole entry, looked up): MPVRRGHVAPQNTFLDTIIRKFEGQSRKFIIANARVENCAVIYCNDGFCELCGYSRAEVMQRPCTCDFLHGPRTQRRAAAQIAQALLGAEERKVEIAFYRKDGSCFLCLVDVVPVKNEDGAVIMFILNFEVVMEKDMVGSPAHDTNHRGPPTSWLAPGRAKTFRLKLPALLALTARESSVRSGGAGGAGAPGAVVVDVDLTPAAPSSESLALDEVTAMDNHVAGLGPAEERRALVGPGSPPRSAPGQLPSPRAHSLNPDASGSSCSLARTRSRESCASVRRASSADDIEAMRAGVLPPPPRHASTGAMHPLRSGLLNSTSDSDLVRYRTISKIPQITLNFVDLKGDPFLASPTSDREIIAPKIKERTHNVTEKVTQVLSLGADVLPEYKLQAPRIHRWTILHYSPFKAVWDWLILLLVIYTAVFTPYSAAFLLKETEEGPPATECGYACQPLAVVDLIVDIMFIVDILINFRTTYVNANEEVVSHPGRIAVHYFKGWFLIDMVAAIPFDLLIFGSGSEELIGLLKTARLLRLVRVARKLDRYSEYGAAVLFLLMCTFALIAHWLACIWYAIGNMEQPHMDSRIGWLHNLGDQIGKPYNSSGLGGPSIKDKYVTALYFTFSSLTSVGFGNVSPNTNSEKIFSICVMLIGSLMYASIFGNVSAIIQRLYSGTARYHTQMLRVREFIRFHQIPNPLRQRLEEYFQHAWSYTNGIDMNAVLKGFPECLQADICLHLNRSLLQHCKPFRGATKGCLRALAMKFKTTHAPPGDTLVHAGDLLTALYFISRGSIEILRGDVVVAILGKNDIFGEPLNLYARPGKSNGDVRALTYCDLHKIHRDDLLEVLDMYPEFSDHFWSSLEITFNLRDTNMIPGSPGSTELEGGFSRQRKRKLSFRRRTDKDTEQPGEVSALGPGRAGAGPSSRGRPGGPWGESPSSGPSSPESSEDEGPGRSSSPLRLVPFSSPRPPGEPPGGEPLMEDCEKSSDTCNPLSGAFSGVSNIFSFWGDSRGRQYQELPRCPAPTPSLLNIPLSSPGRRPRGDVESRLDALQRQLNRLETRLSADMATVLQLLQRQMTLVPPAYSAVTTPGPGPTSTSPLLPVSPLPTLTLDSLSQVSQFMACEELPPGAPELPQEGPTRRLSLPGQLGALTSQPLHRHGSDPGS
Outline: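 First, 1000 cells per well are seeded and cultured overnight at 37 C. Next, FluxOR II dye is loaded for 1 h at room temperature, protected from light. After 10 more minutes, stimulus is added and fluorescence is read.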

[8] = target: Cytochrome P450 2D6 (Homo sapiens) (UniProt P10635); test: Cytochrome P450 Family 2 Subfamily D Member 6 (CYP2D6) small molecule antagonists: luciferase reporter qHTS assay (AID 1671196); note: nearly all actives have a fitted effect of over 50% in size
Chain of UniProt P10635 (P10635 whole entry, looked up): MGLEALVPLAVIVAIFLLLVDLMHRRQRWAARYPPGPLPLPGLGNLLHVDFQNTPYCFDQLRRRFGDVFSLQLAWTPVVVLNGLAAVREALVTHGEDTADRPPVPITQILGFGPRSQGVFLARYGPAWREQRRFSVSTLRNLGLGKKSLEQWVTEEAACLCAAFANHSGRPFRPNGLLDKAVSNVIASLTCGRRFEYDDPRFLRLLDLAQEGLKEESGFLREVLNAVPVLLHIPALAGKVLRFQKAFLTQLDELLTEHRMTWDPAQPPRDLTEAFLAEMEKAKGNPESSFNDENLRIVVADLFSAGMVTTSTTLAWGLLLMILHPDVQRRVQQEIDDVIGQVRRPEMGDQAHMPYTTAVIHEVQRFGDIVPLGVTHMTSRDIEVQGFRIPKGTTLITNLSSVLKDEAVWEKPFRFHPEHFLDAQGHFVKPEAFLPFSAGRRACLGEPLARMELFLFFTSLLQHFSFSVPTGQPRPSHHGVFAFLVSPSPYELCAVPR
Outline: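 Luminescence (RLU), read 20 min after detection reagent, indicated CYP2D6 conversion of proluciferin to luciferin during a 1 h NADPH-dependent reaction at room temperature.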

[9] = target: Cytochrome P450 2C19 (Homo sapiens) (UniProt P33261); test: Cytochrome P450 Family 2 Subfamily C Member 19 (CYP2C19) small molecule antagonists: luciferase reporter qHTS assay (AID 1671197); note: nearly all actives have a fitted effect of over 65% in size
Chain of UniProt P33261 (P33261 whole entry, looked up): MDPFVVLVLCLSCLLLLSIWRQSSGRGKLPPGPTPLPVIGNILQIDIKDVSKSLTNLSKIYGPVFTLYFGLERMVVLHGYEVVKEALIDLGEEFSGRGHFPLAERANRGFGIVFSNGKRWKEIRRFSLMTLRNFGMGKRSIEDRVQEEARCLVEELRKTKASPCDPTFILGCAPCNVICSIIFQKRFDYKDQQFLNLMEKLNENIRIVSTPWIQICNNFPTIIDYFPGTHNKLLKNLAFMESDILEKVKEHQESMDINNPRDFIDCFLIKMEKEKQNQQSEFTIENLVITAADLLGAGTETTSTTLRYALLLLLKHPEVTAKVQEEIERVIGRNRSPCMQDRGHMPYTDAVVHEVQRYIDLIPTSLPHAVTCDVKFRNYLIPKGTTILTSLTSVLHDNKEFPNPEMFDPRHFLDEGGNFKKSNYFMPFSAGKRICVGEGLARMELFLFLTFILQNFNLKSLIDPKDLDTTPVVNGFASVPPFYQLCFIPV
Outline: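 P450-Glo CYP2C19 screening system; proluciferin substrate; DMSO compound stocks; 10 min RT preincubation; NADPH regeneration, 1 h at 37C; luciferin detection reagent, 20 min RT; luminescence as RLU.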

[10] = target: Nuclear receptor subfamily 1 group I member 2 (Homo sapiens) (UniProt O75469); test: Human pregnane X receptor (PXR) small molecule agonists, qHTS assay (AID 1346982); note: nearly all actives have a fitted effect of over 35% in size
Outline: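 We seeded PXR-Luc HepG2 cells in assay medium containing 5% charcoal-stripped FBS, added compounds 5 hr later, incubated 24 hr, and read luminescence with ONE-Glo reagent.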

[11] = target: Nuclear receptor subfamily 1 group I member 2 (Rattus norvegicus) (UniProt Q9R1A7); test: Rat pregnane X receptor (rPXR) activation by small molecules, qHTS assay (AID 1346983); conditions: rPXR luciferase reporter cells, One-Glo luminescence, 24 h; max activation: hits give high values; note: nearly all actives have a fitted effect of over 20% in size
Chain of UniProt Q9R1A7 (Q9R1A7 whole entry, looked up): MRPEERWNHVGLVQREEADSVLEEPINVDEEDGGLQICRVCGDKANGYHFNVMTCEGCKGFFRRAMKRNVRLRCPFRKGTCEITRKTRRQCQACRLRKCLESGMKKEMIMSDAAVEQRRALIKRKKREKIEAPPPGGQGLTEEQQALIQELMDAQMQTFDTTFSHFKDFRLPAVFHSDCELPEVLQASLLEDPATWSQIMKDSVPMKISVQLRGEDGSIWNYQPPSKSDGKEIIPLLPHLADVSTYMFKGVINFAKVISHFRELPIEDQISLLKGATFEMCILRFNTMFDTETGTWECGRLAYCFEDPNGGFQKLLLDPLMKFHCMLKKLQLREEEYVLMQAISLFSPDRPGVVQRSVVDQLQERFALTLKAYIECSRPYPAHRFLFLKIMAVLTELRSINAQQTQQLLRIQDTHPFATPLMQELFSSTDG
Outline: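 Cell-based rPXR luciferase reporter assay, 2,000 cells per well, rested 5hr at 37 C before compound addition in DMSO, then 24 hr at 37 C. One-Glo reagent was added and luminescence read after 30 min at room temperature.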

[12] = target: Nuclear receptor subfamily 1 group I member 2 (Homo sapiens) (UniProt O75469); test: Human pregnane X receptor (PXR) activation by small molecules, qHTS assay (AID 1346985); note: nearly all actives have a fitted effect of over 40% in size
Outline: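 DPX-2 cells (HepG2 co-transfected with a PXR response element and a CYP3A4-promoter luciferase construct) were seeded at 2,000 per well, rested 5 hr at 37C, then exposed to DMSO-dissolved compounds for 24 hr. Activation was read as luciferase luminescence.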
Potency is the fitted concentration of half-maximal effect; tags give direction and shape of the fitted curve.

## CCCOc1ccc2nc(NC(=O)OC)[nH]c2c1
[1]
  Potency: inconclusive: 4.73 µM [cytotoxic, full curve]
[2]
  Potency: inactive

## CCCCCCCCCCCCCOS(=O)(=O)O
[1]
  Potency: inconclusive: 61.1 µM [cytotoxic, single point]
[3]
  Potency: inconclusive: 71 µM [inhibitor, partial curve, poor fit]
[4]
  Potency: inactive

## NC(=O)c1cccnc1
[5]
  Potency: inconclusive: 81.6 µM [activator, partial curve, poor fit]
[3]
  Potency: inconclusive: 62.1 µM [inhibitor, partial curve, poor fit]

## Nc1ccc(S(=O)(=O)NCc2ccccc2)cc1
[6]
  Potency: inactive

## CN1CC(=O)N2[C@H](c3ccc4c(c3)OCO4)c3[nH]c4ccccc4c3C[C@@H]2C1=O
[1]
  Potency: inconclusive: 21.1 µM [cytotoxic, partial curve]
[3]
  Potency: inconclusive: 15.5 µM [inhibitor, full curve]
[2]
  Potency: inconclusive: 27.5 µM [inhibitor, partial curve]
[7]
  Potency: inactive

## CC(C)(COC(=O)c1ccccc1)COC(=O)c1ccccc1
[1]
  Potency: inconclusive: 43.3 µM [rising, partial curve]
[7]
  Potency: inconclusive: 13.8 µM [inhibitor, full curve]

## CCOc1ccc2[nH]cc(C(=O)NCc3ccccc3)c(=O)c2n1
[1]
  Potency: inconclusive: 68.6 µM [cytotoxic, single point]
[3]
  Potency: active: 25.2 µM
[2]
  Potency: active: 31.7 µM
[4]
  Potency: inconclusive: 20 µM [inhibitor, full curve]

## OCC(O)CN1CCN(c2ccccc2)CC1 (configuration not stated)
[5]
  Potency: inactive
[8]
  Potency: inconclusive: 30.9 µM [inhibitor, partial curve]
[9]
  Potency: inconclusive: 0.347 µM [inhibitor, full curve, poor fit]
[3]
  Potency: inactive
[2]
  Potency: inactive
[7]
  Potency: inactive

## CC(C)=CCC1C(=O)N(c2ccccc2)N(c2ccccc2)C1=O
[5]
  Potency: inactive
[10]
  Potency: active: 29.8 µM
[11]
  Potency: active: 28.2 µM
[12]
  Potency: inconclusive: 5.01 µM [activator, full curve, poor fit]
[9]
  Potency: active: 27.5 µM
[3]
  Potency: inconclusive: 27.5 µM [inhibitor, partial curve]
[2]
  Potency: inconclusive: 27.5 µM [inhibitor, partial curve]

## O=C(OC(=O)c1ccccc1)c1ccccc1
[5]
  Potency: inactive
[9]
  Potency: inactive

## O=C(/C=C/c1ccccc1)OCCCc1ccccc1
[1]
  Potency: inactive
[3]
  Potency: active: 22.4 µM
[7]
  Potency: inconclusive: 15.5 µM [inhibitor, full curve]

## CCCCC/C=C/C=C/C=O
[5]
  Potency: inconclusive: 77 µM [activator, single point]
[3]
  Potency: inconclusive: 70.4 µM [inhibitor, partial curve, poor fit]
[7]
  Potency: inconclusive: 54.9 µM [inhibitor, partial curve]

## Nc1ccn([C@H]2CS[C@@H](CO)O2)c(=O)n1
[6]
  Potency: inconclusive: 24.3 µM [rising, full curve, poor fit]

## c1ccc2sc(SN(C3CCCCC3)C3CCCCC3)nc2c1
[1]
  Potency: inactive
[3]
  Potency: inconclusive: 4.97 µM [inhibitor, full curve]
[2]
  Potency: inconclusive: 39.5 µM [inhibitor, partial curve]
[4]
  Potency: inconclusive: 2.22 µM [inhibitor, full curve]

## COc1cccc(OC)c1C(=O)O
[5]
  Potency: inconclusive: 77 µM [activator, partial curve, poor fit]

## CCOc1ccc2c(c1)C(C)=CC(C)(C)N2
[5]
  Potency: inconclusive: 68.2 µM [activator, single point] and inconclusive: 68.6 µM [activator, single point]

## CCCCCCCCC(CCCCCC)C(=O)O (configuration not stated)
[1]
  Potency: inactive
[3]
  Potency: active: 25.2 µM
[2]
  Potency: inactive

## C[C@@H]1C[C@H]2[C@@H]3C[C@H](F)C4=CC(=O)C(Cl)=C[C@]4(C)[C@@]3(F)[C@@H](O)C[C@]2(C)[C@@]1(O)C(=O)CO
[12]
  Potency: inconclusive: 15.8 µM [activator, partial curve, poor fit]

## CCCCOCCOCCSC#N
[7]
  Potency: inactive

## C=C(C)C(=O)OCC(CC)(COC(=O)C(=C)C)COC(=O)C(=C)C
[7]
  Potency: inconclusive: 31.4 µM [inhibitor, partial curve] and inconclusive: 38.2 µM [inhibitor, partial curve, poor fit]
